Reference: a compilation of properties of binary mixtures (doi:10.1016/j.molliq.2018.07.077)
Some of these densities may be calculated back from excess volumes.

Assay: xn = mol fraction of the nth substance listed
Conditions: 101 kPa

CC#N + C[n+]1ccn(CCCC#N)c1.O=S(=O)([O-])C(F)(F)F
mass density (288.15 K, x2 = 0): 787.3 kg/m3 | mass density (293.15 K, x2 = 0): 782 kg/m3 | mass density (298.15 K, x2 = 0): 776.6 kg/m3 | mass density (308.15 K, x2 = 0): 765.7 kg/m3 | mass density (313.15 K, x2 = 0): 760.2 kg/m3 | mass density (318.15 K, x2 = 0): 754.7 kg/m3 | mass density (323.15 K, x2 = 0): 749.2 kg/m3

C[n+]1ccn(CCCC#N)c1.O=S(=O)([O-])C(F)(F)F + CC#N
mass density (288.15 K, x1 = 0.2002): 1135.6 kg/m3 | mass density (288.15 K, x1 = 0.4006): 1282.8 kg/m3 | mass density (288.15 K, x1 = 0.6005): 1364.2 kg/m3 | mass density (288.15 K, x1 = 0.698): 1391.7 kg/m3 | mass density (288.15 K, x1 = 0.7996): 1415 kg/m3 | mass density (288.15 K, x1 = 0.9007): 1434.3 kg/m3 | mass density (288.15 K, x1 = 1): 1449.2 kg/m3 | mass density (293.15 K, x1 = 0.1002): 1000.5 kg/m3 | mass density (293.15 K, x1 = 0.2002): 1130.7 kg/m3 | mass density (293.15 K, x1 = 0.2994): 1216.1 kg/m3 | mass density (293.15 K, x1 = 0.4006): 1278.2 kg/m3 | mass density (293.15 K, x1 = 0.5): 1323.5 kg/m3 | mass density (293.15 K, x1 = 0.698): 1387.4 kg/m3 | mass density (293.15 K, x1 = 0.7996): 1410.7 kg/m3 | mass density (293.15 K, x1 = 0.9007): 1430.2 kg/m3 | mass density (293.15 K, x1 = 1): 1445 kg/m3 | mass density (298.15 K, x1 = 0.1002): 995.4 kg/m3 | mass density (298.15 K, x1 = 0.2002): 1125.9 kg/m3 | mass density (298.15 K, x1 = 0.2994): 1211.4 kg/m3 | mass density (298.15 K, x1 = 0.4006): 1273.7 kg/m3 | mass density (298.15 K, x1 = 0.5): 1319 kg/m3 | mass density (298.15 K, x1 = 0.6005): 1355.3 kg/m3 | mass density (298.15 K, x1 = 0.698): 1383 kg/m3 | mass density (298.15 K, x1 = 0.9007): 1425.9 kg/m3 | mass density (298.15 K, x1 = 1): 1440.9 kg/m3 | mass density (303.15 K, x1 = 0.1002): 990.3 kg/m3 | mass density (303.15 K, x1 = 0.2002): 1121 kg/m3 | mass density (303.15 K, x1 = 0.2994): 1206.8 kg/m3 | mass density (303.15 K, x1 = 0.4006): 1269.1 kg/m3 | mass density (303.15 K, x1 = 0.5): 1314.5 kg/m3 | mass density (303.15 K, x1 = 0.6005): 1350.9 kg/m3 | mass density (303.15 K, x1 = 0.698): 1378.6 kg/m3 | mass density (303.15 K, x1 = 0.7996): 1402.1 kg/m3 | mass density (308.15 K, x1 = 0.1002): 985.3 kg/m3 | mass density (308.15 K, x1 = 0.2002): 1116.3 kg/m3 | mass density (308.15 K, x1 = 0.4006): 1264.6 kg/m3 | mass density (308.15 K, x1 = 0.5): 1310.1 kg/m3 | mass density (308.15 K, x1 = 0.6005): 1346.5 kg/m3 | mass density (308.15 K, x1 = 0.698): 1374.3 kg/m3 | mass density (308.15 K, x1 = 0.7996): 1397.9 kg/m3 | mass density (308.15 K, x1 = 0.9007): 1417.5 kg/m3 | mass density (313.15 K, x1 = 0.1002): 980.2 kg/m3 | mass density (313.15 K, x1 = 0.2994): 1197.3 kg/m3 | mass density (313.15 K, x1 = 0.4006): 1260 kg/m3 | mass density (313.15 K, x1 = 0.6005): 1341.9 kg/m3 | mass density (313.15 K, x1 = 0.698): 1369.9 kg/m3 | mass density (313.15 K, x1 = 0.9007): 1413.4 kg/m3 | mass density (313.15 K, x1 = 1): 1428.4 kg/m3 | mass density (318.15 K, x1 = 0.2002): 1106.5 kg/m3 | mass density (318.15 K, x1 = 0.2994): 1192.7 kg/m3 | mass density (318.15 K, x1 = 0.4006): 1255.3 kg/m3 | mass density (318.15 K, x1 = 0.6005): 1337.5 kg/m3 | mass density (318.15 K, x1 = 0.7996): 1389.3 kg/m3 | mass density (318.15 K, x1 = 1): 1424.3 kg/m3 | mass density (323.15 K, x1 = 0.2002): 1101.7 kg/m3 | mass density (323.15 K, x1 = 0.2994): 1187.9 kg/m3 | mass density (323.15 K, x1 = 0.4006): 1250.8 kg/m3 | mass density (323.15 K, x1 = 0.5): 1296.5 kg/m3 | mass density (323.15 K, x1 = 0.698): 1361 kg/m3 | mass density (323.15 K, x1 = 0.7996): 1385 kg/m3 | mass density (323.15 K, x1 = 0.9007): 1404.9 kg/m3 | mass density (323.15 K, x1 = 1): 1420 kg/m3
